# Source: the supplement of paper PMC8728848
# This is one part of the list.
# B1: PX9937F-bfa-516-16-516 (Bacteroides fragilis) (protein)
# chain: LDIDPTSSIADSNYWKTEAQFSTFNVGLHALLRECSFNFFLLGEPRADIYGDVPFGGEATQGMERLPFNTINKENTGISNFAGMYKVINQINLMIAKTKETTVLSEAGKNYYLGEAYGMRAYLYFHLLRSWGDVILYLDYTNGASLDLSNLSKAASPAEEVMKQIKEDITASEKGFGSDYSFKYGRYYWSMAATQMLKGEVYLWSGRQMGGGTADYTTAKTALQSIVSNANVSLQDDFSKVFAYNNKDNSEIIFSIRNAKDEYNMWDDRFRQNLVPQQAYMTSTYCNKEGVSFKDLPEGQLNGLIRLQIRYDLYNKAFRDGDTRKDASMTAVYQKQQDGTVKYIAPFCNKYQGVLLDGASQRSFLNDYPIYRYADCLLLLAEAKALLGEDPTAEINQVRERAYGKEFFEANKATLAYPNDKGDFYTDNKYMSGDEDPLEAILKERMREFMFEGKRWYDLRLLGADYVTKRTSAVATRLLWPINESVLTDNPALKQTPGYQN
# Key:
# Test in all cases: glycan array binding signal (z-score within array); higher = stronger binding
# Conditions in all cases: glycan notation: IUPAC condensed, linker removed
# [1] = target: Gal(b1-3)GlcNAc(b1-3)Gal(b1-4)GlcNAc(b1-2)[Gal(b1-3)GlcNAc(b1-3)Gal(b1-4)GlcNAc(b1-6)]Man(a1-6)[Gal(b1-3)GlcNAc(b1-3)Gal(b1-4)GlcNAc(b1-2)Man(a1-3)]Man(b1-4)GlcNAc(b1-4)[Fuc(a1-6)]GlcNAc
# In short: (§1)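 From the Consortium for Functional Glycomics database, 3228 arrays were curated, keeping only those whose protein sequence was available. Binding is given as a within-array Z-score averaged across arrays sharing a protein sequence and across linkers. Negative Z-scores can be read as non-binding.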
# [2] = target: Gal(b1-3)GlcNAc(b1-3)Gal(b1-4)GlcNAc(b1-3)Gal(b1-4)GlcNAc(b1-2)[Gal(b1-3)GlcNAc(b1-3)Gal(b1-4)GlcNAc(b1-3)Gal(b1-4)GlcNAc(b1-6)]Man(a1-6)[Gal(b1-3)GlcNAc(b1-3)Gal(b1-4)GlcNAc(b1-3)Gal(b1-4)GlcNAc(b1-2)Man(a1-3)]Man(b1-4)GlcNAc(b1-4)[Fuc(a1-6)]GlcNAc
# In short: as §1
# [3] = target: Gal(b1-3)GlcNAc(b1-3)Gal(b1-4)GlcNAc(b1-6)[Gal(b1-3)GlcNAc(b1-3)]Gal(b1-4)Glc
# In short: as §1
# [4] = target: Gal(b1-3)GlcNAc(b1-3)Gal(b1-4)[Fuc(a1-3)]GlcNAc
# In short: as §1
# [5] = target: Gal(b1-3)GlcNAc(b1-3)Gal(b1-4)[Fuc(a1-3)]GlcNAc(b1-6)[Gal(b1-3)GlcNAc(b1-3)]Gal(b1-4)Glc
# In short: as §1
# [6] = target: Gal(b1-3)GlcNAc(b1-3)GalNAc
# In short: as §1
# [7] = target: Gal(b1-3)GlcNAc(b1-6)Gal(b1-4)GlcNAc
# In short: as §1
# [8] = target: Gal(b1-3)GlcNAc(b1-6)GalNAc
# In short: as §1
# [9] = target: Gal(b1-3)GlcNAc(b1-6)[Gal(b1-3)]GalNAc
# In short: as §1
# Gal(b1-3)GlcNAc6S = target: Gal(b1-3)GlcNAc6S
# In short: as §1
# [10] = target: Gal(b1-3)[Fuc(a1-4)]GlcNAc
# In short: as §1
# [11] = target: Gal(b1-3)[Fuc(a1-4)]GlcNAc(b1-2)Man
# In short: as §1
# [12] = target: Gal(b1-3)[Fuc(a1-4)]GlcNAc(b1-2)Man(a1-3)[Gal(b1-3)[Fuc(a1-4)]GlcNAc(b1-2)Man(a1-6)]Man(b1-4)GlcNAc(b1-4)[Fuc(a1-6)]GlcNAc
# In short: as §1
# [13] = target: Gal(b1-3)[Fuc(a1-4)]GlcNAc(b1-3)Gal(b1-3)[Fuc(a1-4)]GlcNAc
# In short: as §1
# [14] = target: Gal(b1-3)[Fuc(a1-4)]GlcNAc(b1-3)Gal(b1-4)[Fuc(a1-3)]GlcNAc
# In short: as §1
# [15] = target: Gal(b1-3)[Fuc(a1-4)]GlcNAc(b1-6)GalNAc
# In short: as §1
# [16] = target: Gal(b1-3)[GlcNAc(b1-6)]GalNAc
# In short: as §1
# [17] = target: Gal(b1-3)[Neu5Ac(a2-6)]GalNAc
# In short: as §1
# [18] = target: Gal(b1-3)[Neu5Ac(a2-6)]GlcNAc(b1-4)Gal(b1-4)Glc
# In short: as §1
# [19] = target: Gal(b1-3)[Neu5Ac(b2-6)]GalNAc
# In short: as §1
# Gal(b1-4)Gal = target: Gal(b1-4)Gal
# In short: as §1
# [20] = target: Gal(b1-4)GalNAc(a1-3)[Fuc(a1-2)]Gal(b1-4)GlcNAc
# In short: as §1
# [21] = target: Gal(b1-4)GalNAc(b1-3)[Fuc(a1-2)]Gal(b1-4)GlcNAc
# In short: as §1
# Gal(b1-4)Glc = target: Gal(b1-4)Glc
# In short: as §1
# Gal(b1-4)Glc6S = target: Gal(b1-4)Glc6S
# In short: as §1
# Gal(b1-4)GlcNAc = target: Gal(b1-4)GlcNAc
# In short: as §1
# [22] = target: Gal(b1-4)GlcNAc(a1-6)Gal(b1-4)GlcNAc
# In short: as §1
# Gal(b1-4)GlcNAc(b1-2)Man = target: Gal(b1-4)GlcNAc(b1-2)Man
# In short: as §1
# [23] = target: Gal(b1-4)GlcNAc(b1-2)Man(a1-3)Man(b1-4)GlcNAc(b1-4)GlcNAc
# In short: as §1
# [24] = target: Gal(b1-4)GlcNAc(b1-2)Man(a1-3)[Gal(b1-4)GlcNAc(b1-2)Man(a1-6)]Man(b1-4)GlcNAc(b1-4)GlcNAc
# In short: as §1
# [25] = target: Gal(b1-4)GlcNAc(b1-2)Man(a1-3)[Gal(b1-4)GlcNAc(b1-2)Man(a1-6)]Man(b1-4)GlcNAc(b1-4)[Fuc(a1-6)]GlcNAc
# In short: as §1
# [26] = target: Gal(b1-4)GlcNAc(b1-2)Man(a1-3)[Gal(b1-4)GlcNAc(b1-2)Man(a1-6)][Gal(b1-4)GlcNAc(b1-4)]Man(b1-4)GlcNAc(b1-4)[Fuc(a1-6)]GlcNAc
# In short: as §1
# [27] = target: Gal(b1-4)GlcNAc(b1-2)Man(a1-3)[Gal(b1-4)GlcNAc(b1-2)Man(a1-6)][GlcNAc(b1-4)]Man(b1-4)GlcNAc(b1-4)[Fuc(a1-6)]GlcNAc
# In short: as §1
# [28] = target: Gal(b1-4)GlcNAc(b1-2)Man(a1-3)[GlcNAc(b1-2)Man(a1-6)]Man(b1-4)GlcNAc(b1-4)GlcNAc
# In short: as §1
# [29] = target: Gal(b1-4)GlcNAc(b1-2)Man(a1-3)[GlcNAc(b1-4)][Gal(b1-4)GlcNAc(b1-2)Man(a1-6)]Man(b1-4)GlcNAc(b1-4)GlcNAc
# In short: as §1
# [30] = target: Gal(b1-4)GlcNAc(b1-2)Man(a1-3)[Man(a1-6)]Man(b1-4)GlcNAc(b1-4)GlcNAc
# In short: as §1
# [31] = target: Gal(b1-4)GlcNAc(b1-2)Man(a1-6)Man(b1-4)GlcNAc(b1-4)GlcNAc
# In short: as §1
# [32] = target: Gal(b1-4)GlcNAc(b1-2)Man(a1-6)[GlcNAc(b1-2)Man(a1-3)]Man(b1-4)GlcNAc(b1-4)GlcNAc
# In short: as §1
binder,measurement,setting,value
B1,glycan array binding signal (z-score),[1],7.79
same,glycan array binding signal (z-score),[2],0.635
same,glycan array binding signal (z-score),[3],-0.142
same,glycan array binding signal (z-score),[4],-0.014
same,glycan array binding signal (z-score),[5],-0.388
same,glycan array binding signal (z-score),[6],-0.319
same,glycan array binding signal (z-score),[7],-0.358
same,glycan array binding signal (z-score),[8],-0.477
same,glycan array binding signal (z-score),[9],-0.223
same,glycan array binding signal (z-score),Gal(b1-3)GlcNAc6S,-0.283
same,glycan array binding signal (z-score),[10],-0.212
same,glycan array binding signal (z-score),[11],0.5
same,glycan array binding signal (z-score),[12],-0.1
same,glycan array binding signal (z-score),[13],-0.143
same,glycan array binding signal (z-score),[14],-0.307
same,glycan array binding signal (z-score),[15],1.88
same,glycan array binding signal (z-score),[16],-0.315
same,glycan array binding signal (z-score),[17],-0.269
same,glycan array binding signal (z-score),[18],0.05
same,glycan array binding signal (z-score),[19],-0.274
same,glycan array binding signal (z-score),Gal(b1-4)Gal,-0.182
same,glycan array binding signal (z-score),[20],-0.222
same,glycan array binding signal (z-score),[21],1.14
same,glycan array binding signal (z-score),Gal(b1-4)Glc,-0.221
same,glycan array binding signal (z-score),Gal(b1-4)Glc6S,0.112
same,glycan array binding signal (z-score),Gal(b1-4)GlcNAc,0.003
same,glycan array binding signal (z-score),[22],-0.238
same,glycan array binding signal (z-score),Gal(b1-4)GlcNAc(b1-2)Man,-0.006
same,glycan array binding signal (z-score),[23],-0.097
same,glycan array binding signal (z-score),[24],-0.049
same,glycan array binding signal (z-score),[25],0.69
same,glycan array binding signal (z-score),[26],-0.081
same,glycan array binding signal (z-score),[27],-0.376
same,glycan array binding signal (z-score),[28],-0.116
same,glycan array binding signal (z-score),[29],-0.256
same,glycan array binding signal (z-score),[30],-0.304
same,glycan array binding signal (z-score),[31],0.186
same,glycan array binding signal (z-score),[32],-0.357
